The supplement of paper PMC8728848
Some of the results follow.

Columns and labels:
Assay in all cases: glycan array binding signal (z-score within array); higher = stronger binding
Conditions in all cases: glycan notation: IUPAC condensed, linker removed
[1] = biological target: Gal(b1-4)GlcNAc(b1-3)Gal(b1-4)GlcNAc(b1-3)Gal(b1-4)GlcNAc(b1-3)Gal(b1-4)GlcNAc(b1-2)Man(a1-3)[Gal(b1-4)GlcNAc(b1-3)Gal(b1-4)GlcNAc(b1-3)Gal(b1-4)GlcNAc(b1-3)Gal(b1-4)GlcNAc(b1-2)Man(a1-6)]Man(b1-4)GlcNAc(b1-4)[Fuc(a1-6)]GlcNAc
Method in brief: (§1)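 Glycan array data were curated from 3228 arrays in the Consortium for Functional Glycomics database and kept only where the protein sequence was available. Glycan names were converted to IUPAC-condensed notation, and columns mapping to the same glycan were averaged. The binding signal is a within-array Z-score, averaged across arrays of the same protein sequence at different concentrations or buffers and across linkers. Negative Z-scores can be read as non-binding.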

[2] = biological target: Gal(b1-4)GlcNAc(b1-3)Gal(b1-4)GlcNAc(b1-3)Gal(b1-4)GlcNAc(b1-3)Gal(b1-4)GlcNAc(b1-2)[Gal(b1-4)GlcNAc(b1-3)Gal(b1-4)GlcNAc(b1-3)Gal(b1-4)GlcNAc(b1-3)Gal(b1-4)GlcNAc(b1-6)]Man(a1-6)[Gal(b1-4)GlcNAc(b1-3)Gal(b1-4)GlcNAc(b1-3)Gal(b1-4)GlcNAc(b1-3)Gal(b1-4)GlcNAc(b1-2)Man(a1-3)]Man(b1-4)GlcNAc(b1-4)[Fuc(a1-6)]GlcNAc
Method in brief: as §1

[3] = biological target: Gal(b1-4)GlcNAc(b1-3)Gal(b1-4)GlcNAc(b1-3)Gal(b1-4)GlcNAc(b1-3)Gal(b1-4)GlcNAc(b1-3)Gal(b1-4)GlcNAc(b1-2)Man(a1-3)[Gal(b1-4)GlcNAc(b1-3)Gal(b1-4)GlcNAc(b1-3)Gal(b1-4)GlcNAc(b1-3)Gal(b1-4)GlcNAc(b1-3)Gal(b1-4)GlcNAc(b1-2)Man(a1-6)]Man(b1-4)GlcNAc(b1-4)GlcNAc
Method in brief: as §1

[4] = biological target: Gal(b1-4)GlcNAc(b1-3)Gal(b1-4)GlcNAc(b1-3)Gal(b1-4)GlcNAc(b1-3)Gal(b1-4)GlcNAc(b1-3)Gal(b1-4)GlcNAc(b1-2)Man(a1-3)[Gal(b1-4)GlcNAc(b1-3)Gal(b1-4)GlcNAc(b1-3)Gal(b1-4)GlcNAc(b1-3)Gal(b1-4)GlcNAc(b1-3)Gal(b1-4)GlcNAc(b1-2)Man(a1-6)]Man(b1-4)GlcNAc(b1-4)[Fuc(a1-6)]GlcNAc
Method in brief: as §1

[5] = biological target: Gal(b1-4)GlcNAc(b1-3)Gal(b1-4)GlcNAc(b1-3)Gal(b1-4)GlcNAc(b1-3)Gal(b1-4)GlcNAc(b1-3)Gal(b1-4)GlcNAc(b1-2)[Gal(b1-4)GlcNAc(b1-3)Gal(b1-4)GlcNAc(b1-3)Gal(b1-4)GlcNAc(b1-3)Gal(b1-4)GlcNAc(b1-3)Gal(b1-4)GlcNAc(b1-6)]Man(a1-6)[Gal(b1-4)GlcNAc(b1-3)Gal(b1-4)GlcNAc(b1-3)Gal(b1-4)GlcNAc(b1-3)Gal(b1-4)GlcNAc(b1-3)Gal(b1-4)GlcNAc(b1-2)Man(a1-3)]Man(b1-4)GlcNAc(b1-4)[Fuc(a1-6)]GlcNAc
Method in brief: as §1

[6] = biological target: Gal(b1-4)GlcNAc(b1-3)Gal(b1-4)GlcNAc(b1-3)Gal(b1-4)GlcNAc(b1-3)Gal(b1-4)GlcNAc(b1-3)Gal(b1-4)GlcNAc(b1-3)Gal(b1-4)GlcNAc(b1-2)Man(a1-3)[Gal(b1-4)GlcNAc(b1-3)Gal(b1-4)GlcNAc(b1-3)Gal(b1-4)GlcNAc(b1-3)Gal(b1-4)GlcNAc(b1-3)Gal(b1-4)GlcNAc(b1-3)Gal(b1-4)GlcNAc(b1-2)Man(a1-6)]Man(b1-4)GlcNAc(b1-4)GlcNAc
Method in brief: as §1

[7] = biological target: Gal(b1-4)GlcNAc(b1-3)Gal(b1-4)GlcNAc(b1-3)GalNAc
Method in brief: as §1

[8] = biological target: Gal(b1-4)GlcNAc(b1-3)Gal(b1-4)GlcNAc(b1-3)[Gal(b1-4)GlcNAc(b1-3)Gal(b1-4)GlcNAc(b1-6)]GalNAc
Method in brief: as §1

[9] = biological target: Gal(b1-4)GlcNAc(b1-3)Gal(b1-4)GlcNAc(b1-6)[Gal(b1-3)]GalNAc
Method in brief: as §1

[10] = biological target: Gal(b1-4)GlcNAc(b1-3)Gal(b1-4)[Fuc(a1-3)]GlcNAc(b1-3)Gal(b1-4)[Fuc(a1-3)]GlcNAc
Method in brief: as §1

[11] = biological target: Gal(b1-4)GlcNAc(b1-3)GalNAc
Method in brief: as §1

[12] = biological target: Gal(b1-4)GlcNAc(b1-3)[Fuc(a1-3)GlcNAc(b1-6)]Gal(b1-4)Glc
Method in brief: as §1

[13] = biological target: Gal(b1-4)GlcNAc(b1-3)[Gal(b1-4)GlcNAc(b1-6)]Gal(b1-4)GlcNAc
Method in brief: as §1

[14] = biological target: Gal(b1-4)GlcNAc(b1-3)[GlcNAc(b1-6)]Gal(b1-4)GlcNAc
Method in brief: as §1

[15] = biological target: Gal(b1-4)GlcNAc(b1-6)Gal(b1-4)GlcNAc
Method in brief: as §1

[16] = biological target: Gal(b1-4)GlcNAc(b1-6)GalNAc
Method in brief: as §1

[17] = biological target: Gal(b1-4)GlcNAc(b1-6)[Gal(b1-3)]GalNAc
Method in brief: as §1

[18] = biological target: Gal(b1-4)GlcNAc(b1-6)[Gal(b1-4)GlcNAc(b1-3)]GalNAc
Method in brief: as §1

Gal(b1-4)GlcNAc6P = biological target: Gal(b1-4)GlcNAc6P
Method in brief: as §1

Gal(b1-6)Gal = biological target: Gal(b1-6)Gal
Method in brief: as §1

Gal3S(b1-3)GalNAc = biological target: Gal3S(b1-3)GalNAc
Method in brief: as §1

Gal3S(b1-3)GlcNAc = biological target: Gal3S(b1-3)GlcNAc
Method in brief: as §1

[19] = biological target: Gal3S(b1-3)[Fuc(a1-4)]GlcNAc
Method in brief: as §1

B1: LngA (Escherichia coli) (protein)
chain: MLSVYNRTQKFKAEARKKIAKYHELRKQRGMSLLEVIIVLGIIGTIAAGVVILAQRAFDSRAVTDLVTNTNTVRVRMKDAYQRDGKYPDFVDPLSLTANTIKTDTSGIPAAQLVQLGKITPDEVRNNISGDFIAIGGALTSNGAQVKKGFAIELNGLSQEQCRSILGQVGNNWEYVAIGTSASGSYAMTATGVDMSVAASTTVLRSLGNNGQTTLTADKILSTCTAQVNSITLGSR
Q: How did the “glycan array binding signal (z-score)” value [1] turn out when B1 was run?
A: 1.11

Q: What about the “glycan array binding signal (z-score)” value [2] of the same binder?
A: 1.43

Q: And the “glycan array binding signal (z-score)” value [3]?
A: -0.387

Q: What about the “glycan array binding signal (z-score)” value [4] of the same binder?
A: 0.707

Q: And the “glycan array binding signal (z-score)” value [5]?
A: 0.029

Q: What about the “glycan array binding signal (z-score)” value [6] of the same binder?
A: -0.224

Q: What about the “glycan array binding signal (z-score)” value [7] of the same binder?
A: -0.356

Q: What about the “glycan array binding signal (z-score)” value [8] of the same binder?
A: 0.33

Q: And the “glycan array binding signal (z-score)” value [9]?
A: 0.525

Q: And the “glycan array binding signal (z-score)” value [10]?
A: -0.337

Q: What about the “glycan array binding signal (z-score)” value [11] of the same binder?
A: -0.483

Q: What about the “glycan array binding signal (z-score)” value [12] of the same binder?
A: -0.534

Q: What about the “glycan array binding signal (z-score)” value [13] of the same binder?
A: -0.205

Q: What about the “glycan array binding signal (z-score)” value [14] of the same binder?
A: -0.507

Q: What about the “glycan array binding signal (z-score)” value [15] of the same binder?
A: -0.492

Q: What about the “glycan array binding signal (z-score)” value [16] of the same binder?
A: 0.491

Q: What about the “glycan array binding signal (z-score)” value [17] of the same binder?
A: -0.287

Q: And the “glycan array binding signal (z-score)” value [18]?
A: -0.313

Q: What about the “glycan array binding signal (z-score)” value (Gal(b1-4)GlcNAc6P) of the same binder?
A: 4.74

Q: What about the “glycan array binding signal (z-score)” value (Gal(b1-6)Gal) of the same binder?
A: 0.393

Q: What about the “glycan array binding signal (z-score)” value (Gal3S(b1-3)GalNAc) of the same binder?
A: 0.693

Q: And the “glycan array binding signal (z-score)” value (Gal3S(b1-3)GlcNAc)?
A: -0.1

Q: And the “glycan array binding signal (z-score)” value [19]?
A: -0.002
